Results as given in ChEMBL document CHEMBL1157539, “Thousands of chemical starting points for antimalarial lead identification” (Nature, 2010).
Values joined by “and” are separate entries in the source; they are usually repeats but may differ in a detail not shown here. Equal values may be shown once. Whole data set: some 13,000 compounds, median “IFI” near 4, cut for the highest 2% near 17. The list shows a part of the results.

assay: GSK_TCMDC: Inhibition Frequency Index (IFI). The number of non-kinase HTS assays where a compound showed > 50 % inhibition, expressed as a percentage of the number of such assays in which the compound was tested (-0 is zero); assay type: functional

SMILES	IFI
COC(=O)c1ccc(OCC(C)NCC(O)c2cccc(C(F)(F)F)c2)cc1 (stereo not given)	5.26%
CC(C)N1CCC(N(Cc2ccc(-c3ccc(Cl)cc3)cc2)C(=O)Cn2c(CCc3cccc(F)c3F)nc(=O)c3ccccc32)CC1	7.8%
CS(=O)(=O)c1ccc(-c2cnc(N)c(-c3cccc(O)c3)c2)cc1	1.69%
CC[C@H](C)CNC(=O)c1cncc(-c2cccc(CNCCCc3ccccc3)c2)c1	6.45%
Cc1ccccc1CCNC(=O)c1ccc(N2CCN(c3ccncc3)CC2)nc1	2.08%
COc1cccc2cc(C(=O)N[C@@H](CC(C)C)C(=O)N[C@H](C=NN3CCOC3=O)Cc3ccccc3)oc12	3.67%
Cc1ccc2c(-c3ccc([N+](=O)[O-])o3)cc(C)nc2c1	2.88%
COc1cc(-c2ccc(-c3cnc(N)nc3OC)[nH]2)cc(OC)c1OC	1.4%
CN(C)C(=O)CC(=O)NCc1cccc(Cl)c1	-0%
O=C(/C=C/c1ccc(Cl)c(Cl)c1)NCCCCCN1CCC(NC(=S)Nc2cccc(Cl)c2)CC1	10.3%
COc1ccc(CNCCc2cccs2)cc1-c1ccc(S(=O)(=O)NCCN2CCCC2)s1	11.8%
CN(C)CCOc1cccc(-c2cnc(N)c(-c3nc4cc(S(C)(=O)=O)ccc4[nH]3)c2)c1	11.1%
COc1ccc2c(c1CCNCCCCNCCc1c(OC)ccc3c1CCCC3)CCCC2	18.3%
Oc1cc(Nc2ccnc3cc(-c4ccc(CN5CCCCC5)o4)c(Cl)cc23)c(Cl)cc1F	3.03%
Cc1ccnc2nc(C(=O)Nc3cc(C(F)(F)F)ccc3N3CCCCC3)nn12	0%
CCC(NC[C@@H](O)[C@H](Cc1ccccc1)NC(=O)c1cc(C2CCCC2)cc(N2CCCC2=O)c1)c1cccc(Cl)c1 (stereo not given in full)	5.71%
CCCCCCCCc1c(C)nc(C)c(I)c1O	4.38%
O=C(NCC1Cc2cc(Oc3ccccc3)ccc2O1)c1ccc([N+](=O)[O-])o1 (stereo not given)	17.9%
CC(C)c1ccc(NC(=O)NCCCC2CCCN(CCCCCNC(=O)/C=C/c3ccc(Cl)c(Cl)c3)C2)cc1 (stereo not given)	13.4%
O=C(Nc1cccc(CN2CCN(Cc3ccc(O)cc3)CC2)c1)c1ccc(-c2ccccc2)cc1	11%
Cc1ccc(Nc2nc(N/N=C/c3cccc(O)c3)nc(Nc3ccc([N+](=O)[O-])cc3)n2)cc1C	2.11%
Oc1ccc(CCNc2nc(NCc3cccc(OCc4cccc(F)c4)c3)nc(N3CCNCC3)n2)cc1	14.3%
N#CC(CC(=O)c1ccc(Cl)cc1)c1cccc(F)c1 (stereo not given)	0.69%

SMILES	IFI
CCCNCc1ccc(-c2ccc(CN(CCOC)C(=O)c3ccccc3)cc2)nc1	0.75%
Cc1cc2nc(-c3cc(Br)ccc3O)c(-c3cc(Br)ccc3O)nc2cc1C	0%
O=C(NCCN1Cc2ccccc2C1=O)c1ccc(Oc2ccc(C(=O)NCCN3Cc4ccccc4C3=O)cc2)cc1	2.88%
CCCCC(=O)Nc1ccc(Nc2nc(C)cc(N3CCCC3)n2)cc1	7.14%
O=c1cc(NCCCNCc2cccc(C(F)(F)F)c2Cl)[nH]c2ccccc12	0.72%
NC1=NC(c2ccccc2)(c2cccc(O)c2)C(=O)N1CCCc1ccccc1 (stereo not given)	1.75% and 13.6%
CCn1c(C=Cc2cc(Br)ccc2O)nc2ccccc2c1=O	3.55%
CS(=O)(=O)CCNCc1ccc(-c2ccc3ncnc(Nc4ccc(OCc5ccccc5)c(Cl)c4)c3c2)o1	3.47%
CCc1ccc2c(c1O)CCN(C)C2Cc1ccccc1Cl (stereo not given)	1.44%
Cc1cc(=NN=Cc2ccccc2F)c2cccc(C)c2[nH]1	1.48%
CC(=O)NCCCCC1NC2(C(=O)N(Cc3ccc(C(C)(C)C)cc3)c3ccccc32)C2C(=O)N(C3CCCCC3)C(=O)C12 (stereo not given)	2.9%
Cc1ccccc1Nc1nc(NCCc2ccccc2)nc2ccccc12	5.19%
Cc1sc(C)c(CNCCCNc2cc(=O)c3ccccc3[nH]2)c1Br	2.88%
CC1CCCN(Cc2cc(Cl)cc(Cl)c2O)C1 (stereo not given)	1.2%
C=Cc1sc(CNCCCNc2cc(=O)c3ccccc3[nH]2)c(C)c1Br	4.51%
c1cc(CN2CCCCC2)cc(-c2ccc(-c3nc4ccccc4[nH]3)cc2)c1	-0%
COc1cc2nc(N3CCC(CNC(=O)c4ccc(-c5ccc(C(=O)N(C)C)cc5)cc4)CC3)nc(N)c2cc1OC	6.48%
COc1ccc(NC(=O)/C=C/c2ccccc2Cl)cc1OCCN1CCC(N2CCN(C)CC2)CC1	4.23%
CN1CCC(NC(=O)c2cc(Oc3ccc4c(c3)CCN4C(=O)Nc3cccc(C(F)(F)F)c3)ccn2)CC1	4.96%
CN(C)CCN(C)Cc1ccc(-c2ccc(NS(=O)(=O)c3cccc4cccnc34)cc2)cc1	5.79%
O=C(NC1CCN(Cc2ccsc2)CC1)c1ccc(-c2cccc(C(F)(F)F)c2)s1	16.7%
Nc1nc(N)c2cc(Cc3ccccc3Cl)cnc2n1	0.85%
